# According to the supplement of paper PMC11417369:
# ± gives the standard deviation of the averaged measurements. The list shows a part of the results.
# Tested on: PfAP2-G AP2 domain (GST-tagged)
# Assay: gcPBM binding intensity (ln(normalized median fluorescence intensity)); higher = stronger DNA binding
# Procedure, shortened: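 For binding intensity, the highest Masliner-normalised natural-log median intensity across replicate spots of either probe orientation was taken. Protein bound to the array was stained with Alexa488 anti-GST antibody and scanned at 488 nm. The protein, GST-tagged P. falciparum DNA-binding domains from E. coli at about 25 μg on average, had been applied for 1 h to an Agilent 4 × 180k array of primer-extended double-stranded 36-bp intergenic genomic probes and negative controls.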
row,Sequence,gcPBM binding intensity (ln)
1,ATACACAAAATTATTAAATCAATAAATATATGGTTT [CACACA_negctrl_site353],9.63 ± 0.085
2,TGTATGAAATATATTACACACATATATAATATATAT [CACACA_site793],9.73 ± 0.028
3,GTGTAAATAAGGATATATAACAATCAACAAAACATA [CACACA_negctrl_site1759],10.15 ± 0.092
4,TTCAGTGTATACATATGTACATATATATATATATAT [XGTACX_site1621],11.3 ± 0.56
5,ATTTTTATTTGTTACGCATGCATAAAAGTGCATACT [TGCATGCA_site547],10.3 ± 0.22
6,TTGTAATATATGTATTGTACGCATATAACAATTATT [XGTACX_site3652],11.5 ± 1.1
7,TTATAAATGAATAAATGTACAAAATATATATATATA [XGTACX_site8829],10.6 ± 0.27
8,CATAACATAAAATAGGTGCACAAAAATTGTAATTGA,10.4 ± 0.13
9,CACACCCACCAACACACACACACACCCACCCATATA [CACACA_site366],10.2 ± 0.32
10,TATGTCAGATGAAAGGGTACATAATATAATATATTT [XGTACX_site8062],11 ± 0.57
11,TTTATAAAGAAACACACACACATGTGAACATAAAAA [CACACA_site1908],10.3 ± 0.12
12,AAAATACATAAATGTTCACACATTAAAAAGCAGAAG [CACACA_site5346],9.91 ± 0.11
13,TATATTTCAGGGGGGAGTACAAATTTTTTTATATAA [XGTACX_site1600],11.8 ± 0.87
14,TTTATGAAGTAAAAATATAAATTCACAAAGTTAAAA [CACACA_negctrl_site1476],9.79 ± 0.028
15,AAGAACAGAACGTACACACACATATTTATATTTATA [CACACA_site7594],11.4 ± 1
16,GGATTCAAAAAAAAAAATAAAAGTAAATAATAAATA [TGCATGCA_negctrl_site348],9.58
17,TAAATATATTTATACACACACACCAAAGCAATAGAT [CACACA_site7393],10.5 ± 0.21
18,TTCAATATACATATGTGTACTAAAATAAATAGAAAA [XGTACX_site5708],11.3 ± 0.83
19,ATTACAACATTTTATACACACGTGATTATTAATTTT [CACACA_site5581],9.95 ± 0.21
20,ATTTGTAATATTAAATGTACAGGTAAGAAATATCAG [XGTACX_site1562],11.1 ± 0.69
21,TAAGGAAAAAAAATATGTACTTATAGTTCCTTCTTT [XGTACX_site2202],11.1 ± 0.59
22,AACAAAATAAGAAAACGTACAAATGTTTCAAATTCT [XGTACX_site1544],11.2 ± 0.68

row,Sequence,gcPBM binding intensity (ln)
1,CATTATGTACAAAAAGTGCAATATATATTAACACTG,11 ± 0.63
2,TTATATATATATATATATATATATATATATATAAAT [GTGCAC_negctrl_site126],9.62 ± 0.3
3,TTAATAAATATCAATACACACACACTAATGTGAATA [CACACA_site9254],9.915 ± 0.078
4,TTTTTGAGTGCACATACACACAGACATACATTTAAA [CACACA_site5813],10.7 ± 0.6
5,TTTTCAAAGATATATACACACATGCATATTACGGTG [CACACA_site6505],10.1 ± 0.19
6,ATAAAACGTACAATGGTGCATATAAATAATATATAT [GTGCAC_site9960],11.3 ± 1.1
7,CATATATAGATATATACACACATATATAAATAAATA [CACACA_site6759],9.77 ± 0.042
8,AAAATGTTATTGGAAAGTACAAAAAAAATTATATAA [XGTACX_site4074],10.9 ± 0.53
9,TTAATATATATATATATATATATATTTTTATTTTTT [CACACA_negctrl_site763],9.35 ± 0.099
10,TGTATTAACAAAAAGGTGCGGATATATATAAAAAAT [GTGCAC_site9473],10.18 ± 0.049
11,TATGTATATTCTTTCAGTACACATAATGTTGTCATA [XGTACX_site8845],11.2 ± 0.67
12,AAAAAAAAGAATTATTGTACAAAAGAACAATAAATA [XGTACX_site1368],10.7 ± 0.5
13,GTGAAATTATATTTTTGTACATATATTATATATTAT [XGTACX_site3387],10.8 ± 0.48
14,GGTGCACCCATATACACACACAAATACAATGATAAA [CACACA_site1132],10.6 ± 0.76
15,ATATAACATGGACACACACACATATATATATATTAT [CACACA_site6135],10.9 ± 0.51
16,AAGTGTTATGAAATATGTACACATATATTATATATA [XGTACX_site6022],11.4 ± 0.89
17,TATAAATAAATATGGAGTACCAAAAAAATTATAAAA [XGTACX_site7581],11.3 ± 0.69
18,GTATATATCTAAAAATATATATATATATATATATAT [CACACA_negctrl_site788],9.99 ± 0.59
19,ATCGAAGGGGTACAAAATAAAAATAATTCTTTCAAA [TGCATGCA_negctrl_site373],11.4 ± 1.1
20,AAAATAAATATAACCACACACGAAAGAGAGAGAAAA [CACACA_site3272],10 ± 0.13
21,TAACCATAAGAAGATTGTACATAATAAAAGTATTCT [XGTACX_site1117],10.9 ± 0.45
22,AACTGCAAAAAAAGACGTACAAATTATTAATTGCAA [XGTACX_site8929],11.6 ± 0.87

row,Sequence,gcPBM binding intensity (ln)
1,AAATATAAAAAAAAAAGTACTTTGTTACTTTTCTAT [XGTACX_site6034],11.1 ± 0.69
2,TTTTTATTAAATAAAGCACACACAACAACTTTTCAC [CACACA_site9372],10.6 ± 0.47
3,TACAGACATACATACACACATACATATATATATATA [CACACA_site1940],10.1 ± 0.25
4,ATATATATATATATATGTACATACCCAATTGTGTAA [XGTACX_site6352],11.2 ± 0.56
5,ATTTAAAATGGTTATACACACATAAAAGGGGAAATG [CACACA_site2649],10.2 ± 0.21
6,ATTTTTATGTTGAAAAGTACTTGAATCCCATGTAAC [XGTACX_site4453],11 ± 0.64
7,TATCCATATTTGTTCACACACACACCCATTTATATA [CACACA_site3571],10.35 ± 0.085
8,TTAATCTTTCCTACATGTACACACAGAAAAAAAAAA [XGTACX_site5213],11.5 ± 1
9,TTCTTTTTTTTTAAAACAAACAAACAAACAAACAAA [CACACA_negctrl_site832],10.1 ± 0.38
10,TATTTATTTATTTAGTGTACATTTATATTTGTTCAT [XGTACX_site7575],11.4 ± 0.74
11,TAATCATAAAAAAATACACACATATATAATATATAT [CACACA_site1983],9.82 ± 0.17
12,AATATAAATAAAAAATTGATTTCTTTAAAAAGGTAT [CACACA_negctrl_site1038],9.67 ± 0.18
13,TACAAATGAGAAATATGTACATAAAAAAAAAAAAAT [XGTACX_site801],11.4 ± 0.81
14,TTGTTCTTTCAAATTATACACACCAAAAAAAAAAAA [CACACA_site3070],10.1 ± 0.42
15,ATACAAAATCTAATTTGTACACAATGTTTGATTTTT [XGTACX_site5438],11.1 ± 0.75
16,TAAATATATATAACATGTACATAAAATATATATATA [XGTACX_site4431],11.2 ± 0.68
17,TTTTTTCTTTTTTTTTTTAATTATAAACATGATATT [GTGCAC_negctrl_site144],9.75 ± 0.057
18,TATCTTCATTGTTGACGTACAGTATTTCTAAACGTT [XGTACX_site3439],11.5 ± 0.72
19,ATAATTAAAAATAATATATATATAATATGATATTAT [GTGCAC_negctrl_site194],9.43 ± 0.16
20,CCACTTGTGTAATGTTGTACAAAAATAAATATATTT [XGTACX_site4598],11.2 ± 0.57
21,CTATGAACACACACATGTACATATATTAACTCGCTA [XGTACX_site8805],11.1 ± 0.52
22,AAAAAAAAAAAAAACACACACACACGCACATATACA [CACACA_site7288],10.4 ± 0.23

row,Sequence,gcPBM binding intensity (ln)
1,TACACATACAGACATACACACATACACATATACACA [CACACA_site6918],10.2 ± 0.23
2,TTGCTTTCTTTTTTTTGTACTCATATCTACTATCAT [XGTACX_site7711],11.3 ± 0.62
3,CATAAAAATGAACATACACACATATATATATATATA [CACACA_site2498],10.1 ± 0.24
4,TACCTTTATTAATAAAGTACATTAATCTGTGTATAC [XGTACX_site8720],11.2 ± 0.62
5,ATTATTATGTAGAAGGTGCTATGTTCTATAAATATA [GTGCAC_site9545],9.895 ± 0.021
6,CGAGCAAGACGGGGTGCACACAAACTAATATGCCGA [CACACA_site7936],10.6 ± 0.64
7,GTTGTGGAAAGAAGTTGTACATAAAATATTATATAA [XGTACX_site4352],11.3 ± 0.79
8,AAAAAAAAAAAAATGTGGACACAATTGTGTGTTTGT [XGTACX_site3563],11.2 ± 0.63
9,TTTTTGTTAAAATAAATATTATAAATATATTAATAT [TGCATGCA_negctrl_site239],9.71 ± 0.2
10,TACATATTTTATAGCACACAAATAATAATATGTAGT [CACACA_site688],10.12 ± 0.035
11,AGGCCTTTTAGTATTTCACACACGTAAATGCGTATA [CACACA_site1108],10.05 ± 0.028
12,TATTATGTCTAAAATAACATATTAATATATTATTTC [CACACA_negctrl_site285],9.77 ± 0.11
13,TTAATATTTTATTTCACACACATAAATGCCCCAAAC [CACACA_site1887],10.6 ± 0.46
14,AGAGTTCTCCTATGCACACAAAAAACTTTCATTTAT [CACACA_site4193],10.2 ± 0.14
15,TTATTCATAAAAACAAAAAACAAAAATGAAATAGGA [CACACA_negctrl_site1123],9.98 ± 0.057
16,TATGATATAATATACACACATACATATATATATATA [CACACA_site510],10 ± 0.16
17,ACAAAATTGAAATTCACACAAAAACTATACTTTTTA [CACACA_site4638],9.73 ± 0.11
18,ATATCTACTTTTTTATGTACGAAAAAAATACGGATT [XGTACX_site8937],11.2 ± 0.69
19,CATCATATAAATTCAAGTACAAGAAAAAGTAATATA [XGTACX_site2383],11.1 ± 0.59
20,AAATAATTTTTATTTGTACACACATACATATATATT [CACACA_site8240],11.2 ± 0.73
21,TAAATAAAGATATATACACACATATTTATATTTATA [CACACA_site6431],9.655 ± 0.007
22,TATATATATATTAATAGTACATATTATGTAAGCCTA [XGTACX_site2826],10.9 ± 0.61
